# “And” between values parts separate entries of the source, which are not always exact repeats. Identical values can stand only once. This list was built around the results that the source calls inconclusive (neither active nor inactive); the mix of calls is not that of the screen. For some assays here: Where the call is inconclusive, the potency comes from a doubtful curve fit. The source made the active and inactive calls. Unless noted, calls follow the shape of the dose curve; as a rule, active = well fitted curve in the direction sought with a large enough effect in the repeat runs; inconclusive = weak or mixed curves; inactive = no such curve, though single readings can be large; an effect the other way counts as inactive or inconclusive.
# Experiments:
# [1] = biological target: Estrogen receptor (Homo sapiens) (UniProt P03372); test: qHTS assay to identify small molecule antagonists of the estrogen receptor alpha (ER-alpha) signaling pathway (AID 743069; active = well fitted curve in the direction sought with a large enough effect in the signal ratio in the repeat runs, not every such curve was filed as active; inconclusive = weak or mixed curves, or effect the other way; inactive = no such curve, though single readings can be large or run the other way; the % refers to the signal ratio; also: potency is read from the fitted curve at half-maximal effect; as to activity, negative = inhibition: % is scaled to controls: 0 for no effect and ±100 for the full control effect); settings: HEK293 ER-alpha-UAS-bla, beta-lactamase ratio, antagonist mode; activity, negative = inhibition: at 69.4 µM (top of the series) unless noted
# Procedure, shortened: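 HEK293 ER-alpha-UAS-bla GripTite cells, held overnight in 2% charcoal-stripped FBS, 5,000 cells/well, preincubated 4 h, then compound plus 17beta-estradiol for 18 h at 37C. Beta-lactamase read by LiveBLAzer B/G FRET substrate, 2 h at room temperature.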
# [2] = biological target: Estrogen receptor beta (Homo sapiens) (UniProt Q92731); test: qHTS assay to identify small molecule agonists of the estrogen receptor beta (ER-beta) signaling pathway (AID 1259377; active = well fitted activation curve with a large enough effect in the signal ratio in the repeat runs, not every such curve was filed as active; inconclusive = weak or mixed curves, or effect the other way; the % refers to the signal ratio; also: % is scaled to controls: 0 for no effect and ±100 for the full control effect); settings: ER-beta-UAS-bla HEK293T, beta-lactamase FRET ratio, 16 h; activation: at 92.4 µM (top of the series) unless noted
# Procedure, shortened: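 Measured by fluorescence intensity from a B/G FRET beta-lactamase substrate (2 h, room temperature) in ER-beta-UAS-bla HEK293T cells treated with DMSO-dissolved compounds for 16 hr at 37C and 5% CO2.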
# [3] = qHTS assay for small molecule agonists of the p53 signaling pathway (AID 651631; calls by dose curve; also: % is scaled to controls: 0 for no effect and ±100 for the full control effect; nearly all actives have a fitted effect of over 15% in size); settings: HCT-116 p53RE-bla reporter, beta-lactamase FRET ratio, 16 h; activation: at 73.3 µM (top of the series) unless noted
# Procedure, shortened: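 Fluorescence intensity from cleaved LiveBLAzer B/G substrate (2 h, room temperature) served as the signal. Beforehand, HCT-116 reporter cells bearing p53 response elements were treated 16 h at 37 °C with DMSO-dissolved compounds.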
# [4] = qHTS assay for identifying genotoxic compounds that show differential cytotoxicity against isogenic chicken DT40 cell lines with known DNA damage response pathways - Rad54/Ku70 mutant cell line (AID 743015); settings: DT40 Rad54/Ku70 mutant viability, CellTiter-Glo, 40 h; activity change, negative = cytotoxicity: at 66.8 µM (top of the series); also: nearly all actives have a fitted effect of over 60% in size; also: potency is read from the fitted curve at half-maximal effect; as to activity change, negative = cytotoxicity: % is scaled to controls: 0 for no effect and ±100 for the full control effect
# [5] = biological target: Peroxisome proliferator-activated receptor delta (Homo sapiens) (UniProt Q03181); test: qHTS assay to identify small molecule antagonists of the peroxisome proliferator-activated receptor delta (PPARd) signaling pathway (AID 743215; active = well fitted inhibition curve with a large enough effect in the signal ratio in the repeat runs, not every such curve was filed as active; inconclusive = weak or mixed curves, or effect the other way; inactive = no such curve, though single readings can be large or run the other way; the % refers to the signal ratio;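 also: cells stimulated with agonist L165041 at 300 nM final during compound exposure; % is scaled to controls: 0 for no effect and ±100 for the full control effect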); settings: HEK293H PPARd-UAS-bla, beta-lactamase FRET ratio, antagonist, 17 h; ratio activity, negative = inhibition: at 62 µM (top of the series) unless noted
# Procedure, shortened: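 Antagonist-mode beta-lactamase reporter screen: HEK293H cells with UAS-bla under PPARd control, stimulated by 300 nM L165041 (final) alongside test compound for 17 h at 37 C, then FRET fluorescence after 2 h substrate incubation.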
# [6] = biological target: Nuclear receptor subfamily 1 group I member 3 (Homo sapiens) (UniProt Q14994); test: qHTS assay to identify small molecule agonists of the constitutive androstane receptor (CAR) signaling pathway (AID 1224839); also: potency is read from the fitted curve at half-maximal effect; nearly all actives have a fitted effect of over 15% in size
# Procedure, shortened: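 Stable hCAR/CYP2B6-2.2kb HepG2 line in DMEM with 10% FBS; compounds (15 concentrations) and 0.75 uM PK11195 final, 24 h at 37 C/5% CO2, then ONE-Glo luminescence after 30 min.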
# [7] = qHTS assay to identify small molecule antagonists of the progesterone receptor (PR) signaling pathway - cell viability counter screen (AID 1346798); also: potency is read from the fitted curve at half-maximal effect; nearly all actives have a fitted effect of over 50% in size
# Procedure, shortened: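 Viability was determined by ATP-based luminescence (CellTiter-Glo) in PR-UAS-bla HEK293T cells cultured in 2% charcoal-stripped serum and incubated 16 hr with compounds under R5020 stimulation.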
# [8] = qHTS assay to identify small molecule agonists of the progesterone receptor (PR) signaling pathway - cell viability counter screen (AID 1346799; calls by dose curve; also: % is scaled to controls: 0 for no effect and ±100 for the full control effect; nearly all actives have a fitted effect of over 45% in size)
# Procedure, shortened: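 Viability was scored by ATP luminescence (CellTiter-Glo, 30 min, room temperature) in the same wells used for the reporter readout, after 16 hr compound exposure of PR-UAS-bla HEK293T cells.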
# [9] = biological target: Nuclear receptor subfamily 1 group I member 2 (Homo sapiens) (UniProt O75469); test: Human pregnane X receptor (PXR) small molecule agonists, qHTS assay (AID 1346982); also: potency is read from the fitted curve at half-maximal effect; nearly all actives have a fitted effect of over 35% in size
# Procedure, shortened: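 Luminescence (ONE-Glo, 30 min RT) after 24 hr compound exposure of PXR-Luc HepG2 cells; cells rested 5 hr post-plating in 5% charcoal-stripped FBS medium.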
# [10] = qHTS assay to identify small molecule antagonists of the vitamin D receptor (VDR) signaling pathway - cell viability counter screen (AID 743225); settings: VDR-bla HEK293T viability, CellTiter-Glo luminescence, 16 h; viability change, negative = cytotoxic: at 61 µM (top of the series) unless noted; also: nearly all actives have a fitted effect of over 50% in size; also: potency is read from the fitted curve at half-maximal effect
# Procedure, shortened: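 Cytotoxicity toward the VDR-bla HEK 293T line was scored by ATP-based CellTiter-Glo luminescence, read in the wells already used for the beta-lactamase readout after 16 h compound treatment under 3 nM 1-alpha,25-dihydroxyvitamin D3 stimulation.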
# [11] = qHTS RealTime-Glo MT Cell Viability Assay in HEK293 cells - 32 hour (AID 1224868); also: nearly all actives have a fitted effect of over 50% in size; also: potency is read from the fitted curve at half-maximal effect
# Procedure, shortened: (§1)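 HEK293 cells seeded with NanoLuc/prosubstrate reagent, rested 5 h at 37 C, then dosed and kept at 37 C up to 40 h. Nonlytic real-time luminescence from viable cells read at 0, 8, 16, 24, 32 and 40 h.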
# [12] = qHTS assay to identify small molecule agonists of the farnesoid-X-receptor (FXR) signaling pathway - cell viability counter screen (AID 743218); settings: FXR-bla HEK293T viability, CellTiter-Glo luminescence, 16 h; viability change, negative = cytotoxic: at 62.6 µM (top of the series); also: potency is read from the fitted curve at half-maximal effect; nearly all actives have a fitted effect of over 45% in size
# Procedure, shortened: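 In GeneBLAzer FXR-UAS-bla HEK 293T cells, compounds act for 16 h at 37 C. Cell viability is then scored in the reporter wells by CellTiter-Glo, 30 min at RT, luminescence.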
# [13] = qHTS assay to identify small molecule agonists of H2AX - cell viability counter screen (AID 1224847; calls by dose curve; also: potency is read from the fitted curve at half-maximal effect; nearly all actives have a fitted effect of over 30% in size)
# Procedure, shortened: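 Viability of CHO-K1 (wild type) cells after 3 hr compound exposure was measured by CellTiter-Glo luminescence.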
# [14] = qHTS RealTime-Glo MT Cell Viability Assay in HEK293 cells - 16 hour (AID 1224872); also: nearly all actives have a fitted effect of over 50% in size; also: potency is read from the fitted curve at half-maximal effect
# Procedure, shortened: as §1
# [15] = qHTS assay to identify small molecule antagonists of the sonic hedgehog signaling (Shh) pathway (AID 1259369; calls by dose curve; also: nearly all actives have a fitted effect of over 45% in size; also: potency is read from the fitted curve at half-maximal effect)
# Procedure, shortened: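 Screening used 3T3Gli1-Luc cells at 2,000 per well, compounds delivered in DMSO, and conditioned medium as agonist stimulus; plates incubated 24hr at 37 C and 5% CO2 before a 30min luciferase step.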
# [16] = biological target: Thyrotropin receptor (Homo sapiens) (UniProt P16473); test: qHTS assay to identify small molecule agonists of the thyroid stimulating hormone receptor (TSHR) signaling pathway (AID 1224843; calls by dose curve; also: nearly all actives have a fitted effect of over 45% in size; also: potency is read from the fitted curve at half-maximal effect); settings: TSHR-HEK293 cells, cAMP HTRF, agonist mode, 30 min; activation: at 92.4 µM (top of the series) unless noted
# Procedure, shortened: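 TSHR-HEK293 cells in agonist mode, 30 min room-temperature step, then cAMP measured by competitive HTRF (cAMP-d2 with anti-cAMP cryptate) after 1 h at room temperature. Tested at 15 concentrations in triplicate.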
# [17] = qHTS assay to identify small molecule agonists of the estrogen receptor beta (ER-beta) signaling pathway - cell viability counter screen (AID 1259380); also: nearly all actives have a fitted effect of over 30% in size; also: potency is read from the fitted curve at half-maximal effect
# Procedure, shortened: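 Viability of ER-beta-UAS-bla HEK293T cells was determined by CellTiter-Glo luminescence following 16 hr treatment with test compounds at 37C.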
# [18] = qHTS assay to identify small molecule agonists of the constitutive androstane receptor (CAR) signaling pathway - cell viability counter screen (AID 1224836)
# Procedure, shortened: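 Fluorescence from CellTiter-Fluor indicates live cells after 23 h exposure. The human hepatoma line expresses hCAR and a CYP2B6-2.2kb reporter. Incubation medium contains 0.75 uM PK11195 (final).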
# [19] = qHTS RealTime-Glo MT Cell Viability Assay in HEK293 cells - 24 hour (AID 1224886)
# Procedure, shortened: as §1
# [20] = biological target: Cytochrome P450 3A4 (Homo sapiens) (UniProt P08684); test: Cytochrome P450 Family 3 Subfamily A Member 4 (CYP3A4) small molecule antagonists: luciferase reporter qHTS assay (AID 1671201); also: nearly all actives have a fitted effect of over 50% in size; also: potency is read from the fitted curve at half-maximal effect
# Procedure, shortened: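 Enzyme and proluciferin substrate are mixed with test chemicals for 10 min, then NADPH regeneration system drives turnover for 1 h at room temperature. A detection reagent halts the reaction; luminescence after 20 min gives relative activity.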
# Tags tell the direction and shape of the fitted curve or compound fluorescence and quenching.
# Sequence of UniProt Q92731 (Q92731 whole entry, looked up): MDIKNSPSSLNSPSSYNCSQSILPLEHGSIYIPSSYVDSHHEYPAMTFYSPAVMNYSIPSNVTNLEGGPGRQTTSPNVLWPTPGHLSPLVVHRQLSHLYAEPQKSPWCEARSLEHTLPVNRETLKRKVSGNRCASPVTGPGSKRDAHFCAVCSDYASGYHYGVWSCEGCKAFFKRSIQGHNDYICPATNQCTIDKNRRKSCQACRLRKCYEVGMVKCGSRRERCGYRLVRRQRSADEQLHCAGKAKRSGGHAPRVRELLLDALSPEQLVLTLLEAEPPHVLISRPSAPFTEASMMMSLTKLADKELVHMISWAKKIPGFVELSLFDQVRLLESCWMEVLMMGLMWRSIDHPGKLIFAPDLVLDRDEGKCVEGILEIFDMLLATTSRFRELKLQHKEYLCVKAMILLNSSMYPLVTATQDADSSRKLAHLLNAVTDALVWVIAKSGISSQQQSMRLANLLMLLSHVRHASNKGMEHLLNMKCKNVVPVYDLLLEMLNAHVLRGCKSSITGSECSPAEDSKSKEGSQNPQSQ
# Sequence of UniProt P03372 (P03372 whole entry, looked up): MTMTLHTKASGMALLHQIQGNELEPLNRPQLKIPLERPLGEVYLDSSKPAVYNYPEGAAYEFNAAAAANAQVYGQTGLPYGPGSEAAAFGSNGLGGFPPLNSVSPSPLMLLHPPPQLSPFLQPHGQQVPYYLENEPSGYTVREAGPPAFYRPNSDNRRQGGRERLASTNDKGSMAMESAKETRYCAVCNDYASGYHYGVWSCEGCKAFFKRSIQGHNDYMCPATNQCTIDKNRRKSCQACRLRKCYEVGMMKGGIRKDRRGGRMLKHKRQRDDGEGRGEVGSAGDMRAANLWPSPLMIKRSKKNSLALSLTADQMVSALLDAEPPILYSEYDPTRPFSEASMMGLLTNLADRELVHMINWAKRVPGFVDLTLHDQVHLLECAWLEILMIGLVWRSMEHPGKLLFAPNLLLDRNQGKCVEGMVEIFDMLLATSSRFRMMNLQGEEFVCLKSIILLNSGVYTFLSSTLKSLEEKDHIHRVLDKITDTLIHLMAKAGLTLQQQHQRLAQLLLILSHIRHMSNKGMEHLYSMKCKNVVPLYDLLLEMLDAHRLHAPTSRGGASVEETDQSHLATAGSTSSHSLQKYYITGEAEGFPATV
# Sequence of UniProt P08684 (P08684 whole entry, looked up): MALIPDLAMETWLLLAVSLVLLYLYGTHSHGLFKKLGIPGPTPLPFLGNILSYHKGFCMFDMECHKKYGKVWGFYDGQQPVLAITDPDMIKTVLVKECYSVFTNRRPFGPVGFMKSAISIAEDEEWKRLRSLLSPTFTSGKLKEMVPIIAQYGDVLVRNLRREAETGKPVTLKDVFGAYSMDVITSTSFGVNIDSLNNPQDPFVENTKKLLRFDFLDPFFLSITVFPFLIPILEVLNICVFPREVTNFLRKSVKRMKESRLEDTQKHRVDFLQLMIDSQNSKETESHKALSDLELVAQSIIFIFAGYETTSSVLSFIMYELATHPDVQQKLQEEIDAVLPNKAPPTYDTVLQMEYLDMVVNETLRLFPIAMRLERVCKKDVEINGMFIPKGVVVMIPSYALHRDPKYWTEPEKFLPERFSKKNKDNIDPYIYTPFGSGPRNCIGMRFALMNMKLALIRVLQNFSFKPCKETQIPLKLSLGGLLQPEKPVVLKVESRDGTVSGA
# Sequence of UniProt Q03181 (Q03181 whole entry, looked up): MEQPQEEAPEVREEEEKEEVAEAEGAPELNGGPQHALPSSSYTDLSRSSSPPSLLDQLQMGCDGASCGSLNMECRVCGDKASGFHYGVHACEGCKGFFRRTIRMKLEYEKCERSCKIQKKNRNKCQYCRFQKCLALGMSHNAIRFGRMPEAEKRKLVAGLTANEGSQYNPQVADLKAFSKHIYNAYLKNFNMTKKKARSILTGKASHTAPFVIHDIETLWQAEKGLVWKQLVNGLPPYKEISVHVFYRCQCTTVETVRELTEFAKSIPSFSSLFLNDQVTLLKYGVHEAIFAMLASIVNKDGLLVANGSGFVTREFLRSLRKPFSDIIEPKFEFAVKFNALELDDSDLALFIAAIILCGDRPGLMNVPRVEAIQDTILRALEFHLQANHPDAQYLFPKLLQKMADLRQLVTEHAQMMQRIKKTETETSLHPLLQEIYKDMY
# Sequence of UniProt P16473 (P16473 whole entry, looked up): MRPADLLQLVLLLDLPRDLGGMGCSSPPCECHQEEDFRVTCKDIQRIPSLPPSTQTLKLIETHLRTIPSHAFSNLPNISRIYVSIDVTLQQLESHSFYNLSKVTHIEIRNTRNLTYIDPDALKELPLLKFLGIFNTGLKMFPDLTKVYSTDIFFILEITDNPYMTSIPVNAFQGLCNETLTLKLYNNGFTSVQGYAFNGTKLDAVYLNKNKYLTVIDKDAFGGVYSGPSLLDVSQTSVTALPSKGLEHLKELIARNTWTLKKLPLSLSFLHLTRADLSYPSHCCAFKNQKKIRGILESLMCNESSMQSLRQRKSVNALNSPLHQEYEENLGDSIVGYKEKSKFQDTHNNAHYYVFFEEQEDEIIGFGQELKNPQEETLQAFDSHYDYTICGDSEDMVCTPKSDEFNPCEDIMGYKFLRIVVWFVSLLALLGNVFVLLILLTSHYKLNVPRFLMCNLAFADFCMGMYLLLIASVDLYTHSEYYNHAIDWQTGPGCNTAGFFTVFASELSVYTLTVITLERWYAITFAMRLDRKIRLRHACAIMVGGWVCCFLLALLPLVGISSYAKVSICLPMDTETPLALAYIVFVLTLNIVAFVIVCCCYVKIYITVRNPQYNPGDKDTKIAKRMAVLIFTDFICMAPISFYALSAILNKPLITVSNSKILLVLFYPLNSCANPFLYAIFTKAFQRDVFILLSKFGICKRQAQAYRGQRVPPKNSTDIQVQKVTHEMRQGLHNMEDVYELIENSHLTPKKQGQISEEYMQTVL
# Sequence of UniProt Q14994 (Q14994 whole entry, looked up): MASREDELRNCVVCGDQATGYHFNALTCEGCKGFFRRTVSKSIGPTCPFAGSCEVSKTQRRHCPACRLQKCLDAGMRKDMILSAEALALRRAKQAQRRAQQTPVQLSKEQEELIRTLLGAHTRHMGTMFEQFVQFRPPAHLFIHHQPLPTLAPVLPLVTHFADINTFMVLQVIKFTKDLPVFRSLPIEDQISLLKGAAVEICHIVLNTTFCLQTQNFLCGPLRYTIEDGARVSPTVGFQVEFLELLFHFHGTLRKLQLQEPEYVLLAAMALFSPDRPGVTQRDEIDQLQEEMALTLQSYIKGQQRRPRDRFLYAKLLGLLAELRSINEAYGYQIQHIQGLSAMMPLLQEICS
# Sequence of UniProt O75469 (O75469 whole entry, looked up): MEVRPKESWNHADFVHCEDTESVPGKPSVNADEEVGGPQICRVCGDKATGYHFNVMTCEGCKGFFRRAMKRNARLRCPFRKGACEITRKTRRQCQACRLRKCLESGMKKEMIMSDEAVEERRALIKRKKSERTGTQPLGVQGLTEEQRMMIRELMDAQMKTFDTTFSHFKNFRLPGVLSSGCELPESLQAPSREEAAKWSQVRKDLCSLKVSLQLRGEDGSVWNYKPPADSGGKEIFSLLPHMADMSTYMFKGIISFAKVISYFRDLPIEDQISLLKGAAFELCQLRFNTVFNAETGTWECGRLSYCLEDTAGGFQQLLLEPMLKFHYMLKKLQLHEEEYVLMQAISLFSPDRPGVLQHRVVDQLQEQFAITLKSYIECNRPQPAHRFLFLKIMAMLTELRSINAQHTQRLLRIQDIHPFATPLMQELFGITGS
structure (smiles),measurement,setting,value
OC[C@@H](O)[C@H]1O[C@@H]2O[C@H](C(Cl)(Cl)Cl)O[C@@H]2[C@H]1O,Potency,[1],"inconclusive: 38.9 µM [activator, partial curve]"
same,Potency,[2],inactive
O=CNC(N1CCN(C(NC=O)C(Cl)(Cl)Cl)CC1)C(Cl)(Cl)Cl (stereo unspecified),Potency,[3],inactive
same,Potency,[4],"inconclusive: 68.6 µM [cytotoxic, single point]"
same,"ratio activity, negative = inhibition",[5],inconclusive: 2.19%
Cc1cccc2sc3nncn3c12,Potency,[6],"inconclusive: 34.4 µM [activator, partial curve]"
same,Potency,[7],"inconclusive: 3.06 µM [rising, partial curve, poor fit]"
same,Potency,[8],inactive
same,Potency,[9],active: 34.4 µM
CC(C)(C)c1cc(C(C)(C)C)c(O)c(C(C)(C)C)c1,Potency,[6],active: 8.63 µM
CCC/C=N/O,Potency,[4],inactive
same,Potency,[1],inactive
same,Potency,[10],inactive
same,Potency,[11],inactive
same,Potency,[2],inactive
COc1ccc(-c2ccccc2)cc1NNC(=O)OC(C)C,Potency,[1],inconclusive: 51 µM [partial curve]
same,Potency,[12],"inconclusive: 72.1 µM [cytotoxic, single point]"
same,Potency,[10],active: 51 µM
same,Potency,[13],"inconclusive: 105 µM [cytotoxic, partial curve]"
same,Potency,[11],active: 51 µM
same,Potency,[14],"inconclusive: 45.5 µM [cytotoxic, partial curve]"
same,Potency,[15],"inconclusive: 16 µM [inhibitor, full curve]"
same,Potency,[7],"inconclusive: 90 µM [cytotoxic, single point]"
Clc1cccc(C(Cl)(Cl)Cl)n1,activation,[16],inconclusive: -20.8% and inconclusive: -14%
same,Potency,[15],inactive
same,Potency,[17],inactive
same,Potency,[7],"inconclusive: 0.611 µM [cytotoxic, single point]"
CCCC[N+](=O)[O-],Potency,[18],inactive
same,Potency,[19],inactive
same,Potency,[15],inactive
same,Potency,[17],inactive
ClC(Cl)c1ccccc1,"viability change, negative = cytotoxic",[10],inconclusive: -20.1% [cytotoxic] [at 78.8 µM]
same,Potency,[18],inactive
same,Potency,[20],inactive
CC(C)CBr,Potency,[11],inactive
same,Potency,[14],inactive
same,Potency,[2],inactive
CN1C(=O)CCS(=O)(=O)C1c1ccc(Cl)cc1 (stereo unspecified),Potency,[4],"inconclusive: 68.6 µM [cytotoxic, single point]"
same,Potency,[5],inactive
same,Potency,[10],"inconclusive: 1.1 µM [cytotoxic, single point]"
same,Potency,[16],inactive
same,Potency,[8],inactive
CCOP(=S)(OCC)SCSc1ccc(Cl)cc1,Potency,[4],"inconclusive: 48.6 µM [cytotoxic, partial curve]"
same,Potency,[16],"inconclusive: 8.63 µM [inhibitor, full curve]"
same,Potency,[13],"inconclusive: 2.53 µM [cytotoxic, single point]"
N#Cc1ccncc1,Potency,[12],"inconclusive: 0.158 µM [rising, partial curve, poor fit]"
same,Potency,[10],inactive
CCOP(=O)(N=C1SCCS1)OCC,Potency,[16],inactive
same,Potency,[14],"inconclusive: 61.6 µM [rising, single point]"
same,Potency,[15],inactive
same,Potency,[17],"inconclusive: 8.63 µM [rising, partial curve, poor fit]"
COc1cc2c(cc1OC)[C@@]13CCN4CC5=CCO[C@H]6CC(=O)N2[C@H]1[C@H]6[C@H]5C[C@H]43,activation,[16],inconclusive: -2.92%
same,Potency,[15],inconclusive: 19.3 µM [inhibitor]
same,Potency,[17],"inconclusive: 61.1 µM [cytotoxic, partial curve, poor fit]"
same,Potency,[8],inactive
same,Potency,[20],"inconclusive: 39.9 µM [inhibitor, partial curve]"
